Some of the results follow.
Columns and labels:
Assay in all cases: glycan array binding signal (z-score within array); higher = stronger binding
Settings in all cases: glycan notation: IUPAC condensed, linker removed
Neu5Ac(a2-8)Neu5Ac = molecular target: Neu5Ac(a2-8)Neu5Ac
Procedure, shortened: (§1)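 The binding signal is a Z-score computed within each array. Data were drawn from 3228 arrays in the Consortium for Functional Glycomics database, restricted to those with a known protein sequence. Scores were averaged over arrays of the same protein sequence at different concentrations or buffers, and over linkers, and negative values can be taken as non-binding.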

[1] = molecular target: Neu5Ac(a2-8)Neu5Ac(a2-3)Gal(b1-3)GalNAc(b1-4)[Neu5Ac(a2-3)]Gal(b1-4)Glc
Procedure, shortened: as §1

[2] = molecular target: Neu5Ac(a2-8)Neu5Ac(a2-3)Gal(b1-3)GalNAc(b1-4)[Neu5Ac(a2-8)Neu5Ac(a2-3)]Gal(b1-4)Glc
Procedure, shortened: as §1

[3] = molecular target: Neu5Ac(a2-8)Neu5Ac(a2-3)Gal(b1-4)Glc
Procedure, shortened: as §1

[4] = molecular target: Neu5Ac(a2-8)Neu5Ac(a2-3)Gal(b1-4)GlcNAc
Procedure, shortened: as §1

[5] = molecular target: Neu5Ac(a2-8)Neu5Ac(a2-3)[Gal(b1-3)GalNAc(b1-4)]Gal(b1-4)Glc
Procedure, shortened: as §1

[6] = molecular target: Neu5Ac(a2-8)Neu5Ac(a2-3)[GalNAc(b1-4)]Gal(b1-4)Glc
Procedure, shortened: as §1

[7] = molecular target: Neu5Ac(a2-8)Neu5Ac(a2-8)Neu5Ac
Procedure, shortened: as §1

[8] = molecular target: Neu5Ac(a2-8)Neu5Ac(a2-8)Neu5Ac(a2-3)Gal(b1-4)Glc
Procedure, shortened: as §1

[9] = molecular target: Neu5Ac(a2-8)Neu5Ac(a2-8)Neu5Ac(a2-3)[Gal(b1-3)GalNAc(b1-4)]Gal(b1-4)Glc
Procedure, shortened: as §1

[10] = molecular target: Neu5Ac(a2-8)Neu5Ac(a2-8)Neu5Ac(a2-3)[GalNAc(b1-4)]Gal(b1-4)Glc
Procedure, shortened: as §1

[11] = molecular target: Neu5Ac(a2-8)Neu5Ac(a2-8)Neu5Ac(a2-8)Neu5Ac(a2-3)[GalNAc(b1-4)]Gal(b1-4)Glc
Procedure, shortened: as §1

[12] = molecular target: Neu5Ac(a2-8)Neu5Gc(a2-3)Gal(b1-4)GlcNAc
Procedure, shortened: as §1

[13] = molecular target: Neu5Ac(b2-6)Gal(b1-4)GlcNAc
Procedure, shortened: as §1

Neu5Ac(b2-6)GalNAc = molecular target: Neu5Ac(b2-6)GalNAc
Procedure, shortened: as §1

[14] = molecular target: Neu5Ac9Ac(a2-3)Gal(b1-3)GlcNAc
Procedure, shortened: as §1

[15] = molecular target: Neu5Ac9Ac(a2-3)Gal(b1-4)GlcNAc
Procedure, shortened: as §1

[16] = molecular target: Neu5Ac9Ac(a2-6)Gal(b1-4)GlcNAc
Procedure, shortened: as §1

[17] = molecular target: Neu5Gc(a2-3)Gal(b1-3)GlcNAc
Procedure, shortened: as §1

[18] = molecular target: Neu5Gc(a2-3)Gal(b1-3)[Fuc(a1-4)]GlcNAc
Procedure, shortened: as §1

Neu5Gc(a2-3)Gal(b1-4)Glc = molecular target: Neu5Gc(a2-3)Gal(b1-4)Glc
Procedure, shortened: as §1

[19] = molecular target: Neu5Gc(a2-3)Gal(b1-4)GlcNAc
Procedure, shortened: as §1

[20] = molecular target: Neu5Gc(a2-3)Gal(b1-4)GlcNAc(b1-3)Gal(b1-4)GlcNAc(b1-2)Man(a1-3)[Neu5Gc(a2-3)Gal(b1-4)GlcNAc(b1-3)Gal(b1-4)GlcNAc(b1-2)Man(a1-6)]Man(b1-4)GlcNAc(b1-4)GlcNAc
Procedure, shortened: as §1

[21] = molecular target: Neu5Gc(a2-3)Gal(b1-4)[Fuc(a1-3)]GlcNAc
Procedure, shortened: as §1

[22] = molecular target: Neu5Gc(a2-6)Gal(b1-4)GlcNAc
Procedure, shortened: as §1

Neu5Gc(a2-6)GalNAc = molecular target: Neu5Gc(a2-6)GalNAc
Procedure, shortened: as §1

[23] = molecular target: Neu5Gc(a2-8)Neu5Ac(a2-3)Gal(b1-4)GlcNAc
Procedure, shortened: as §1

[24] = molecular target: Neu5Gc(a2-8)Neu5Gc(a2-3)Gal(b1-4)GlcNAc
Procedure, shortened: as §1

[25] = molecular target: Neu5Gc(a2-8)Neu5Gc(a2-3)Gal(b1-4)GlcNAc(b1-3)Gal(b1-4)GlcNAc
Procedure, shortened: as §1

[26] = molecular target: Neu5Gc(a2-8)Neu5Gc(a2-6)Gal(b1-4)GlcNAc
Procedure, shortened: as §1

[27] = molecular target: Neu5Gc(b2-6)Gal(b1-4)GlcNAc
Procedure, shortened: as §1

B1: PVL (Psathyrella velutina), Q309D1_9AGAR (protein)
chain: MSVVVISQALPVPTRIPGVADLVGFGNGGVYIIRNSLLIQVVKVINNFGYDAGGWRVEKHVRLLADTTGDNQPDVVGFGENGVWISTNNGNNTFVDPPKMVLANFAYAAGGWRVEKHIRFMADLRKTGRADIVGFGDGGIYISRNNGGGQFAPAQLALNNFGYAQGWRLDRHLRFLADVTGDGLLDVVGFGENQVYIARNSGNGTFQPAQAVVNNFCIGAGGWTISAHPRVVADLTGDRKADILGFGVAGVYTSLNNGNGTFGAVNLVLKDFGVNSGWRVEKHVRCVSSLTNKKVGDIIGFGDAGVYVALNNGNGTFGPVKRVIDNFGYNQGWRVDKHPRFVVDLTGDGCADIVGFGENSVWACMNKGDGTFGPIMKLIDDMTVSKGWTLQKTVRYAANLYL
glycan array binding signal (z-score) (Neu5Ac(a2-8)Neu5Ac): -0.169 | glycan array binding signal (z-score) [1]: -0.344 | glycan array binding signal (z-score) [2]: -0.341 | glycan array binding signal (z-score) [3]: -0.328 | glycan array binding signal (z-score) [4]: -0.379 | glycan array binding signal (z-score) [5]: -0.332 | glycan array binding signal (z-score) [6]: -0.343 | glycan array binding signal (z-score) [7]: -0.323 | glycan array binding signal (z-score) [8]: -0.318 | glycan array binding signal (z-score) [9]: -0.349 | glycan array binding signal (z-score) [10]: -0.347 | glycan array binding signal (z-score) [11]: -0.301 | glycan array binding signal (z-score) [12]: -0.293 | glycan array binding signal (z-score) [13]: -0.357 | glycan array binding signal (z-score) (Neu5Ac(b2-6)GalNAc): -0.19 | glycan array binding signal (z-score) [14]: -0.327 | glycan array binding signal (z-score) [15]: -0.066 | glycan array binding signal (z-score) [16]: -0.217 | glycan array binding signal (z-score) [17]: -0.362 | glycan array binding signal (z-score) [18]: -0.348 | glycan array binding signal (z-score) (Neu5Gc(a2-3)Gal(b1-4)Glc): -0.357 | glycan array binding signal (z-score) [19]: -0.363 | glycan array binding signal (z-score) [20]: 0.11 | glycan array binding signal (z-score) [21]: -0.318 | glycan array binding signal (z-score) [22]: -0.355 | glycan array binding signal (z-score) (Neu5Gc(a2-6)GalNAc): -0.353 | glycan array binding signal (z-score) [23]: -0.364 | glycan array binding signal (z-score) [24]: -0.364 | glycan array binding signal (z-score) [25]: -0.261 | glycan array binding signal (z-score) [26]: -0.408 | glycan array binding signal (z-score) [27]: -0.366
